# The campaign covered roughly 390,000 compounds. About 930 (0.24%) were called active. Inconclusive means that the source gave no clear call. Such entries were picked first, then a sample of the others. Calls come from the whole dose curve; as a rule, active = well fitted activation curve with a large enough effect; inconclusive = small, poorly fitted or top-dose-only effect; inactive = no such curve, though single readings can be large or run the other way. Potencies beside an inconclusive call are fits to weak or partial responses and may not hold up.
# Experiment: qHTS for Suppressors of FUS Proteinopathy: Primary screen using FUS-linked yeast assay; note: nearly all actives have a fitted effect of over 55% in size;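 for growth rescue (activation): plate controls were DMSO vehicle for no effect and reference control for full effect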
# Settings: S. cerevisiae FUS-expressing, OD600, 24 h; Potency: growth rescue; growth rescue (activation): at 76.6 µM (top of the series)
# In short: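 Yeast FUS proteinopathy model; galactose-induced FUS (2%), starting OD 0.005. Cpds in dilution series, 24hr, 30C, 99% humidity. Abs 600 nm growth. Pos ctrl CP55940 (top 92uM final); neg ctrl DMSO.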
# Potency is the fitted concentration of half-maximal effect; tags give direction and shape of the fitted curve.
Structure (SMILES),growth rescue (activation),Potency
CC1(C)Oc2ccc(C(=O)NCCCN3CCCC3)cc2NC1=O,inactive: 23.6%,
Cc1nc2ccc(NC(=O)c3nn(CC(C)C)c(=O)c4ccccc34)cc2s1,,"inconclusive: 35.5 µM [activator, single point]"
COc1ccc(C2=NN(c3ccccc3)C(=O)/C2=C\c2ccc(O)c(OC)c2)cc1,,"inconclusive: 50.1 µM [activator, single point]"
COc1cccc(CNC(=O)c2ccc3c(c2)sc2nc(-c4ccccc4)cn23)c1OC,inactive: 23.1%,
CCOc1ccccc1N1CCN(S(=O)(=O)c2ccc3c4c(cccc24)C(=O)N3)CC1,,"inconclusive: 28.2 µM [activator, single point]"
CC1C(=O)N(Cc2cn(CCC3OCCCO3)nn2)CCS(=O)(=O)N1Cc1ccc(-c2ccc(Cl)c(Cl)c2)cc1 (centres undefined),,"inconclusive: 31.6 µM [activator, single point]"
O=c1oc2ccc(NS(=O)(=O)c3cccc4cccnc34)cc2s1,,"inconclusive: 22.4 µM [activator, partial curve, poor fit]"
Cc1ccc(C(=O)OCC(=O)Nc2sc3c(c2C#N)CCCC3)cc1NC(=O)c1ccco1,inactive: 40.3%,
NS(=O)(=O)c1ccc(NC(=O)CSc2nnc(COc3ccccc3Cl)n2C2CC2)cc1,,"inconclusive: 56.2 µM [activator, partial curve, poor fit]"
COc1cc(NC(=O)CCCN2C(=O)CCn3nc(-c4cn(C)c5ccccc45)cc32)cc(OC)c1,,"inconclusive: 50.1 µM [activator, single point]"
COC(=O)[C@@]12CCCCC3=C1N(CCC3)C(=O)[C@H]2CC(=O)NCCc1ccccc1OC,inactive: 11.8%,
COc1ccc([C@H]2CC(=O)C=C(c3ccc4ncccc4c3)C2)cc1,inactive: 17.3%,
O=C(c1cnc(N2CCCCC2)c2ccccc12)N1CCN(c2ccc(F)cc2)CC1,,"inconclusive: 31.6 µM [activator, single point]"
COc1ccc(Cl)cc1NC(=O)c1cc2nc(-c3ccc(C)cc3)cc(C(F)(F)F)n2n1,inactive: 9.65%,
O=C(OCc1cn(Cc2cccc(Cl)c2)nn1)N1CCOCC1,inactive: -11%,
Nc1c(C=C2C=CC(=O)C=C2)c(=O)nc2sc(CC(=O)N3CCCCC3)nn12,,"inconclusive: 14.1 µM [activator, partial curve, poor fit]"
CC(C)(C)OC(=O)NCc1ccc(NC(=O)c2nc[nH]c2C(=O)NCCN(CCNC(=O)c2[nH]cnc2C(=O)Nc2ccc(CNC(=O)OC(C)(C)C)cc2)CCNC(=O)c2[nH]cnc2C(=O)Nc2ccc(CNC(=O)OC(C)(C)C)cc2)cc1,,active: 8.91 µM
O=C(NCc1nc2ccccc2[nH]1)C1=C[C@@H](C2CCCCC2)C[C@@H](OCc2ccc(CO)cc2)O1,,active: 31.6 µM
COc1ccc(NS(=O)(=O)c2cc(NC(=O)c3ccc(=O)[nH]c3)ccc2N2CCCC2)cc1,,"inconclusive: 25.1 µM [activator, single point]"
O=C(CSc1ccc(Cl)cc1)Nc1ccc(N2CCN(C(=O)c3ccc(Cl)cc3)CC2)cc1,inactive: 36.2%,
Cc1c(C(=O)N/N=C/c2ccccc2Cl)[nH][nH]c1=O,inactive: 5.18%,
C=C[C@@](C)(O)CC[C@@H]1[C@@]2(C)CCCC(C)(C)[C@@H]2CC[C@@]1(C)O,,"inconclusive: 31.6 µM [activator, single point]"

Structure (SMILES),growth rescue (activation),Potency
Cc1ccccc1OCC(=O)NNC(=O)c1ccc(-c2ccccc2)cc1,,"inconclusive: 0.891 µM [activator, full curve, poor fit]"
COC(=O)[C@]12C[C@H](CC(=O)NCCc3ccccc3OC)C(=O)N(Cc3cccc4ccccc34)C1=C[C@H](C1CCCC1)O[C@@H]2C,,"inconclusive: 10 µM [activator, full curve, poor fit]"
CCCCC[C@@H](C)N1C[C@@H](COCc2ccccc2)Oc2cc(N3CC[C@H](N(C)C)C3)ccc2S1(=O)=O,,"inconclusive: 15.8 µM [activator, partial curve, poor fit]"
Cc1nc(NC(=O)c2ccco2)sc1-c1csc(Nc2ccc(Cl)cc2)n1,,active: 22.4 µM
C=CCN(C(=O)[C@@H](C)[C@@H](O)c1ccc(C(C)=O)cc1)c1ccccc1,inactive: 27.1%,
CC(C)C1C(=O)N(Cc2cn(CCC3OCCO3)nn2)CCS(=O)(=O)N1Cc1ccc(-c2cccc(N(C)C)c2)cc1 (centres undefined),,"inconclusive: 25.1 µM [activator, single point]"
COc1ccc(CN(C2CCCC2)S(=O)(=O)c2ccc(-n3cnnn3)cc2)cc1,,"inconclusive: 50.1 µM [activator, single point]"
CCN(CC)S(=O)(=O)c1ccc(C(=O)Nc2nnc(-c3ccco3)o2)cc1,inactive: -12.7%,
Cc1cccc(NC(c2nnc(-c3ccccc3)o2)c2ccc(F)cc2Cl)c1C (centres undefined),inactive: 0.464%,
COc1ccc(C(=O)Cn2c(C)nc([N+](=O)[O-])c2Br)cc1,inactive: 11.9%,
Cc1cc(C(=O)CN2C(=O)NC3(CCCc4ccccc43)C2=O)c(C)n1Cc1ccccc1 (centres undefined),,"inconclusive: 28.2 µM [activator, partial curve, poor fit]"
CCc1ccccc1NC(=O)CSc1nc2ccccc2nc1Cc1cccc(OC)c1,inactive: -7.46%,
COc1cc(/C=N\NC(=O)CC#N)ccc1OC/C=C/c1ccccc1,,"inconclusive: 6.31 µM [activator, partial curve]"
CC(C)(C)NC(=O)CN(C(=O)CNC(=O)c1cccs1)c1ccc2c(c1)OCCO2,,"inconclusive: 56.2 µM [activator, partial curve, poor fit]"
O=S(=O)(c1ccc(Br)cc1)N1CCn2cccc2C1c1ccc(Br)cc1 (centres undefined),inactive: 12%,
O=C(O)c1[nH]c2ccc([N+](=O)[O-])cc2c1-c1ccccc1,inactive: 37%,
CCOC(=O)[C@]12CCCC=C1N(Cc1cccc3ccccc13)C(=O)[C@H](CC(=O)N1CCCCC1)C2,,"inconclusive: 12.6 µM [activator, partial curve]"
COc1ccc(CCNC(=O)c2cc(-c3ccc(C)c(C)c3)nc3ccccc23)cc1OC,,"inconclusive: 44.7 µM [activator, single point]"
CN(C(=O)c1cccc(NC(=O)Cc2ccc(NC(=O)C3CCCN(S(=O)(=O)c4cccc([N+](=O)[O-])c4)C3)cc2)c1)C1CCC1 (centres undefined),,"inconclusive: 12.6 µM [activator, partial curve, poor fit]"
Cc1ccc(C(=O)COC(=O)c2cccc(NC(=O)c3ccc([N+](=O)[O-])cc3[N+](=O)[O-])c2)cc1,inconclusive: 64.6% [activator],
CCOc1ccc(CCNC(c2nnc(-c3ccccc3)o2)c2ccccc2Cl)cc1OCC (centres undefined),,"inconclusive: 28.2 µM [activator, single point]"
CC1(C)Cc2c(sc3nnn(CC(=O)Nc4ccccc4)c(=O)c23)CO1,inactive: 5.8%,

Structure (SMILES),growth rescue (activation),Potency
C[C@@H]1CN([C@H](C)CO)C(=O)CCCn2nncc2CO[C@@H]1CN(C)S(=O)(=O)c1ccc(Oc2ccccc2)cc1,,"inconclusive: 14.1 µM [activator, partial curve, poor fit]"
Cc1cc(C)n2c(SCc3ccc(C#N)cc3)nnc2n1,inactive: -7.45%,
COc1ccc(C(C(=O)NCc2ccccc2)n2c(=O)c(-c3ccco3)nc3ccccc32)cc1 (centres undefined),,"inconclusive: 15.8 µM [activator, partial curve, poor fit]"
COc1ccc(NC(=O)C2Cc3ccccc3CN2C(=O)c2ccccc2)cn1 (centres undefined),,"inconclusive: 31.6 µM [activator, partial curve, poor fit]"
CC1=NN(c2ccc(C(=O)OC(C)C)cc2)C(=O)/C1=C\C=C\c1ccco1,,"inconclusive: 39.8 µM [activator, partial curve, poor fit]"
CCOc1cc(/C=C2/SC(=Nc3ccccc3)N(Cc3cccnc3)C2=O)ccc1OCC#N,inactive: -11.3%,
CC(=O)N1CCN(CC(O)COc2ccc(S(=O)(=O)N3CCOCC3)cc2)CC1 (centres undefined),inactive: -1.37%,
Cc1cc(C)c2c(-n3cccc3)nn(C)c2n1,,"inconclusive: 7.08 µM [activator, partial curve, poor fit]"
COCCCNc1nc2ccccc2nc1NS(=O)(=O)c1ccccc1,inactive: -14.7%,
COc1cc(C(CC(=O)N2CCCC2)c2c(OC)cc(OC)c3ccc(=O)oc23)cc(OC)c1OC (centres undefined),,"inconclusive: 28.2 µM [activator, single point]"
COC(=O)C1=CN(C(C)c2ccccc2)C=C(C(=O)OC)C1c1cc(OC)c(OC)c(OC)c1 (centres undefined),,"inconclusive: 20 µM [activator, partial curve, poor fit]"
O=C(Nc1ccc(NC(=O)C2CCCCC2)nc1)c1ccccn1,,"inconclusive: 7.08 µM [activator, single point]"
CC(=O)C1=C(O)C(=O)N(CCCCCC(=O)O)C1c1ccc(N(C)C)cc1 (centres undefined),,"inconclusive: 4.47 µM [activator, partial curve, poor fit]"
CSCCCN1CCCC(CO)(Cc2ccc(F)cc2)C1 (centres undefined),,"inconclusive: 4.47 µM [activator, single point]"
CCOC(=O)CCSCC(=O)N1N=C(c2cccs2)CC1c1ccc(C)cc1 (centres undefined),inactive: 18.9%,
CCCCc1ccc(NC(=O)CN(C)CC(=O)Nc2ccccc2Cl)cc1,,active: 35.5 µM
CC1=NNC(=O)/C1=C\c1cn(-c2ccccc2)nc1-c1cccs1,,"inconclusive: 50.1 µM [activator, single point]"
COc1ccccc1NC(=O)Cn1c(=O)n(Cc2nc(C)no2)c(=O)c2cc3c(cc21)OCO3,inactive: -2.81%,
Clc1nc(Nc2ccccc2)nc(Nc2ccccc2)n1,inactive: 18.7%,
COc1ccccc1/C=C(\C#N)C(=O)NCC1CCCO1 (centres undefined),,"inconclusive: 31.6 µM [activator, single point]"

# Reference: PubChem BioAssay AID1347120 (National Center for Advancing Translational Sciences (NCATS), 2019)
